# “And” between values parts separate entries of the source, which are not always exact repeats. Equal entries are not always repeated. About 2,200 (0.56%) of roughly 390,000 compounds were called active. The inconclusive results got no clear call from the source; some entries with a clear call stand among them for comparison. Calls come from the whole dose curve; as a rule, active = well fitted inhibition curve with a large enough effect; inconclusive = small, poorly fitted or top-dose-only effect; inactive = no such curve, though single readings can be large or run the other way. Potencies of inconclusive entries are doubtful fits and often do not repeat.
# Target: Chromobox protein homolog 1 (Homo sapiens) (UniProt P83916)
# Assay: HTS for Inhibitors of HP1-beta Chromodomain Interactions with Methylated Histone Tails; note: nearly all actives have a fitted effect of over 70% in size
# Details: AlphaScreen HP1-beta / biotin-H3K9me3 peptide binding; series mostly up to 114 µM; activity change, negative = inhibition: at the top concentration
# Method in brief: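 AlphaScreen: HP1-beta (50 nM) preformed 30 min with biotin-H3(1-18)K9me3 peptide (50 nM) in PBS pH 7.4, 0.01% Tween-20. Compound added for 30 min at RT, then streptavidin donor/nickel chelate acceptor beads (10 ug/mL) for 30 min.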
# Potency is the fitted concentration of half-maximal effect; tags give direction and shape of the fitted curve.
# Chain of UniProt P83916 (P83916 whole entry, looked up): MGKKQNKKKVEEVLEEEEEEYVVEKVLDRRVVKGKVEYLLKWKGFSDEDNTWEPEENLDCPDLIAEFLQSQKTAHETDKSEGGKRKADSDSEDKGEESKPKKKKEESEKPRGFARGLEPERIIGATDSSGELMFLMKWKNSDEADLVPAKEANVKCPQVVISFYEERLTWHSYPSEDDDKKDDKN
Structure (SMILES),"activity change, negative = inhibition",Potency
CCOc1ccccc1C(=O)Nc1cc(C)ccc1NC(=O)c1ccco1,inactive: 29.8%,–
Cc1ccccc1OCc1ccc(-c2nc(C#N)c(N3CCN(C)CC3)o2)o1,–,"inconclusive: 17.8 µM [inhibitor, full curve]"
C/C(=N\NC(=S)Nc1cc(S(=O)(=O)N2CCOCC2)ccc1Cl)c1ccccc1F,–,"inconclusive: 25.1 µM [inhibitor, partial curve, poor fit]"
N#C/C(=C\c1cc(O)c(O)c(O)c1)C(N)=O,–,"inconclusive: 4.47 µM [inhibitor, full curve, poor fit]"
CCOc1ccc(NC(=O)CCN2CCN(C)CC2)cc1,inactive: 24.8%,–
O=C(O)CCCCCN1C(=O)/C(=C/c2cn(-c3ccccc3)nc2-c2cccs2)SC1=S,–,"inconclusive: 56.2 µM [inhibitor, partial curve, poor fit]"
CCN(c1ccc(NC(=O)COC(=O)CCc2cc(OC)c(OC)c(OC)c2)cc1)C(C)C,–,"inconclusive: 44.7 µM [inhibitor, partial curve]"
CCn1c(=O)n(CC)c2cc(N3CCCC3)c(NC(=O)c3ccccc3OC)cc21,–,"inconclusive: 39.8 µM [inhibitor, partial curve, poor fit]"
C#CCOCCOCCOCCNc1nc(N2CCN(C(=O)CCCCCCCCCCNC(=O)[C@H](CCCCN)n3cc(C[C@@H](C)CC)nn3)CC2)nc(N2CCN(C(=O)CCCCCCCCCCNC(=O)[C@H](CCCN=C(N)N)n3cc(C[C@@H](C)CC)nn3)CC2)n1,–,active: 50.1 µM
Cc1ccc(S(=O)(=O)N2CCCC2C(=O)NCc2ccccc2Cl)cc1 (centres undefined),inactive: 49.9%,–
Cc1cccc(N(C)C(=O)CN(C)S(=O)(=O)c2ccc3[nH]c4c(c3c2)CCCC4)c1,–,"inconclusive: 50.1 µM [inhibitor, partial curve]"
COc1ccc(CC(=O)Nc2c(C(=O)Nc3ccc(F)cc3)oc3ccccc23)cc1OC,inactive: 41.5%,–
COCCCNCCOCCSc1ccc(Cl)cc1,–,"inconclusive: 50.1 µM [inhibitor, partial curve, poor fit]"
Cc1ccc(OCC(=O)Nc2ccc(N3CCCC3)cc2)cc1C,–,"inconclusive: 50.1 µM [inhibitor, partial curve]"
CCOC(=O)c1sc(=S)[nH]c1C,–,"inconclusive: 50.1 µM [inhibitor, partial curve, poor fit]"
Cc1ccc(NC(=O)c2sc(=S)n(-c3cc(C)ccc3F)c2N)cc1,–,"inconclusive: 10 µM [inhibitor, partial curve, poor fit]"
O=C(c1ccc2[nH]c3c(c2c1)CCCC3)N1CCN(c2ccc(F)cc2)CC1,–,"inconclusive: 20 µM [inhibitor, full curve]"
Cc1ccc(CNC(=O)c2nc(-c3ccc(Cl)cc3)n3c2CCCCC3)cc1,–,"inconclusive: 20 µM [inhibitor, full curve]"
COc1ccc(C2CC(c3ccccc3)Oc3cc(OC)ccc32)cc1 (centres undefined),–,"inconclusive: 79.4 µM [inhibitor, partial curve, poor fit] and inconclusive: 89.1 µM [inhibitor, single point]"
Fc1ccc(-c2csc(N3CCOCC3)n2)cc1,inactive: -3.28%,–

Structure (SMILES),"activity change, negative = inhibition",Potency
O=[N+]([O-])c1ccc(CN2CCN(c3ccccc3)CC2)o1,–,"inconclusive: 35.5 µM [inhibitor, partial curve]"
Cc1nc2ccccc2c(=O)n1/N=C/c1ccc(O)c(O)c1O,–,"inconclusive: 15.8 µM [inhibitor, full curve]"
O=[N+]([O-])c1cccc(-c2ccc(C(=S)N3CCN(c4ccc(F)cc4)CC3)o2)c1,–,"inconclusive: 17.8 µM [inhibitor, full curve]"
O=C(CN1C(=O)C2CCCCC2C1=O)Nc1nc(-c2ccccn2)cs1 (centres undefined),–,"inconclusive: 17.8 µM [inhibitor, partial curve, poor fit]"
Cc1ccc(NS(=O)(=O)c2cc([N+](=O)[O-])ccc2NNC(=S)Nc2cccc(Cl)c2)c(C)c1,–,"inconclusive: 22.4 µM [inhibitor, full curve, poor fit]"
COc1ccc(Cn2c(=O)[nH]c3cc(C(=O)N4CCN(c5cccc(OC)c5)CC4)ccc3c2=O)cc1,inactive: 27.2%,–
CCCOc1ccc(N2C(=O)CC(N(CCc3ccccc3)C(=O)c3ccccc3)C2=O)cc1 (centres undefined),inactive: 24.6%,–
O=C(Nc1cccc(-c2nc3ncccc3o2)c1)c1ccc2c(c1)OCO2,inactive: -13.7% [at 57 µM],–
Cc1ccc(NC(=O)CCNCc2ccco2)cc1S(=O)(=O)N(C)C,–,"inconclusive: 17.8 µM [inhibitor, partial curve]"
CCOc1ccc(CN(C)CC(=O)Nc2cccc3ccccc23)cc1OC,–,"inconclusive: 22.4 µM [inhibitor, full curve]"
S=C(Nc1ccc(OCc2ccccc2)cc1)Nc1cccc(Cl)c1Cl,–,"inconclusive: 35.5 µM [inhibitor, single point]"
COc1ccc(-n2c(CN3CCN(c4ccc(F)cc4)CC3)nc3ccc([N+](=O)[O-])cc3c2=O)c(OC)c1,–,"inconclusive: 50.1 µM [inhibitor, partial curve, poor fit]"
CCc1ccc(CNc2ccc3c(c2)ncn3C)cc1,–,"inconclusive: 50.1 µM [inhibitor, partial curve, poor fit]"
COc1ccc(N=Nc2ccc3ccccc3c2)c(O)c1,–,active: 3.16 µM
Cc1ccc(C(=O)c2cc([N+](=O)[O-])ccc2N2CCCCC2)c(C)c1,–,"inconclusive: 22.4 µM [inhibitor, partial curve, poor fit]"
CNC(=O)CSc1nnc(-c2ccco2)n1-c1cc(C)ccc1C,–,"inconclusive: 22.4 µM [inhibitor, single point]"
Cc1ccc(N=Cc2cc(Cc3ccccc3Cl)cc([N+](=O)[O-])c2O)c(O)c1,–,"inconclusive: 50.1 µM [inhibitor, partial curve]"
Cc1ccc(N=Nc2ccc(O)c(P(=O)(c3ccccc3)c3ccccc3)c2)cc1,inactive: -19%,–
CCN(CC)c1ccc(C2Nc3cccc4cccc(c34)N2)c(O)c1,–,"inconclusive: 25.1 µM [inhibitor, full curve, poor fit]"
